Assay results reported in PubChem BioAssay AID1346428 (National Center for Advancing Translational Sciences (NCATS), 2018).
The campaign covered roughly 48,000 compounds. About 1,200 (2.5%) were called active. Another 2% or so got no clear call; they are omitted.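 How the source made its calls: active means activation of at least 60% and not above a set upper limit (about 1 call in 100 departs from these limits); inconclusive means activation of 40% to 60%, or above that upper limit; inactive means activation under 40%.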 Some of the results follow.

Each compound was assayed against Probable G-protein coupled receptor 32 (Homo sapiens) (UniProt O75388) (assay: qHTS for Agonists of Human Resolvin D1 Receptor DRV1). Details: CHO-K1 GPR32 beta-arrestin PathHunter luminescence, 90 min; at 76.9 µM; hits give high values; zero percent set by DMSO-only wells.
Sequence of UniProt O75388 (O75388 whole entry, looked up): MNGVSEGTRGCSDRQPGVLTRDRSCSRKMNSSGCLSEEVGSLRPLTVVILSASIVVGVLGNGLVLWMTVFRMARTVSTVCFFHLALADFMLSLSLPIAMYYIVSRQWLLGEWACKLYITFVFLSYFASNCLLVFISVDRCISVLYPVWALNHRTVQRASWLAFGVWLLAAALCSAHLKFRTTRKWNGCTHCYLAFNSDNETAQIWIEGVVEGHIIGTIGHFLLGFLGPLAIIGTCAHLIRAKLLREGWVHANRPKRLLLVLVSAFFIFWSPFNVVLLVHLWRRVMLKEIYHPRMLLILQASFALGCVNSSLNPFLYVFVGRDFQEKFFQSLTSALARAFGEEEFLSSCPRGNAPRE
How it was run: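 Luminescent readout of beta-Gal complementation quantifies ligand-induced beta-arrestin association with GPR32 in CHO-K1 cells; 90 min compound incubation at 37 °C, detection 1 h at room temperature.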
Further: 0% is about no effect.

activation, inactive:
CCN(CC)S(=O)(=O)c1ccc(C(=O)NC2CC(=O)N(c3ccc4c(c3)OCCO4)C2)cc1 (configuration not stated) -5.88%
Cc1c(C(=O)OC2CCCCCC2)[nH]c2c1C(=O)CC(c1ccccc1Cl)C2 (configuration not stated) -3.29%
CCOC(=O)c1c(S(=O)(=O)N2CCC(C(=O)Nc3cccc(C#N)c3)CC2)c(C)n(C)c1C -1.44%
O=C(CN1C(=O)COc2ccc(S(=O)(=O)Nc3ccccc3)cc21)NCc1ccccc1Cl 5.01%
COc1ccc(NC(=O)Cn2c(=O)n(CCc3ccccc3)c(=O)c3sc4ccccc4c32)cc1 -5.44%
Cc1cc(C)nc(-n2nc(C)c3c2NC(=O)CC3c2ccccc2OC(C)C)n1 (configuration not stated) -14.7%
COc1ccc(CCNc2nc(SCc3ccccc3Cl)nc3ccccc23)cc1OC -19.5%
CCOC(=O)c1ccc(N2C(=O)c3[nH]nc(-c4ccccc4)c3C2c2cccs2)cc1 (configuration not stated) -21%
Cc1ccnc(NS(=O)(=O)c2ccc(NC(=O)c3cc(=O)c4ccc(C)c(C)c4o3)cc2)n1 -5.73%
COC(=O)c1ccc(CSc2nc3c([nH]c4ccccc43)c(=O)n2-c2cccc(OC)c2)o1 -4.45%
Cc1ccc2nc(N3CCN(C(=O)C4COc5ccccc5O4)CC3)sc2c1 (configuration not stated) -15.7%
COc1ccc(/C=N/NC(=O)c2ccncc2)cc1OC 3.32%
COc1ccc(-c2nc3ccccc3o2)cc1NC(=O)c1ccc(N2CCC(C)CC2)c([N+](=O)[O-])c1 -5.96%
COc1ccc(CNC(=O)c2cc3c(=O)n(Cc4cccs4)ccc3nc2C)cc1 -24.5%
CCOC(=O)c1sc(NC(=O)c2nc(SCC)ncc2Cl)c(C(=O)OCC)c1C -4.49%
CN(C)CCNC(=O)Cc1ccc(NC(=O)N2CCCCc3ccccc32)cc1 -9.18%
COc1ccc(Cl)cc1NC(=O)c1c(C(=O)Nc2cccc(C)c2C)sc2nc(C)cc(=O)n12 10.9%
CCOC(=O)c1cc(-c2ccc(C)cc2)n(CC(=O)Nc2cccc(C(C)=O)c2)c1C -2.67%
Cc1ccc(C(=O)c2cn(Cc3ccc(F)cc3)c3nc(C)ccc3c2=O)cc1 4.77%
COCCCn1c(=N)c(S(=O)(=O)c2ccccc2)cc2c(=O)n3cccc(C)c3nc21 1.87%
CC1(C)CC(=O)c2cc(C(=O)Nc3ccc(Br)cc3)c(=O)n(-c3ccc(Cl)cc3)c2C1 -5.23%
Cc1oc(-c2ccccc2F)nc1Cn1c(SCc2ccccc2F)nc2ccncc21 -19.7%
CCn1cc2nc(SCc3cc(C)ccc3C)n(Cc3ccc(C)cc3)c(=O)c2n1 -20.9%
Cc1ccccc1OCc1nc2c3cnn(-c4ccccc4Br)c3ncn2n1 -0.726%
COc1ccccc1N1CCN(C(=O)CCSCc2ccccc2F)CC1 -15.1%
COc1ccc(Nc2oc(/C=C/c3ccc(F)cc3)nc2C#N)cc1 -29.8%
Cc1ccc(C2c3cccn3CCN2S(=O)(=O)c2ccc([N+](=O)[O-])cc2)cc1 (configuration not stated) -3.84%
O=C(Cn1c(=O)oc2ccccc21)NCc1ccccc1Cl -9.46%
O=C(CSc1nc(-c2ccco2)nc2cc(=O)[nH]n12)Nc1ccccc1Cl 25.7%
CCOc1ccc2ncc3c(-c4ccccc4)nn(CC(=O)Nc4cccc(F)c4)c3c2c1 -2.37%
COc1ccc(-n2c(-c3ccc(F)cc3)cn3c4c(=O)n(C)c(=O)n(C)c4nc23)cc1 -22.3%
COc1ccccc1CNC(=O)Cn1c(=O)oc2ccccc21 -13.6%
COc1cc2[nH]c(=O)n(CCCC(=O)NCc3ccccc3Cl)c(=O)c2cc1OC 20.5%
Cc1cc(OCCn2c(C3CC(=O)N(Cc4ccc(F)cc4)C3)nc3ccccc32)ccc1Cl (configuration not stated) -11.3%
COCCCNC(=O)C1CCN(c2nnc(-n3cccc3CNc3ccc(C)cc3)s2)CC1 -18.2%
CCCn1cc(S(=O)(=O)c2cccc(Cl)c2)c(=O)c2cc(F)c(N3CCN(CC)CC3)cc21 -9.33%
O=C(CSc1nc2c(c(=O)[nH]1)CCCC2)Nc1cccc(O)c1 17.4%
COCCCNC(=O)Cn1c(=O)n(-c2cccc(C)c2)c(=O)c2c3c(sc21)CN(C(C)=O)CC3 -4.21%
O=C1OC(c2ccc(O)cc2)(c2ccc(O)cc2)c2ccccc21 12%
COC(=O)c1ccccc1NC(=O)CSc1nc2sc3c(c2c(=O)[nH]1)CCCC3 -7.68%
COc1cccc(CNC(=O)Cn2cc3c(n2)-c2c(oc(C(=O)N4CCOCC4)c2C)CC3)c1 10.3%
COc1ccc(S(=O)(=O)N2Cc3ccccc3CC2C(=O)Nc2cccc(C)c2)cc1OC (configuration not stated) -0.697%
CCCCn1c(CCNC(=O)c2ccc(F)cc2)nc2ccccc21 39.3%
COc1cc(C(=S)N2CCOCC2)ccc1O 23.8%
COc1ccccc1CNc1nc(-c2ccco2)nn1C(=O)c1ccccc1[N+](=O)[O-] -12.3%
COc1ccc(-c2cc(C(F)(F)F)nc(S(=O)(=O)CCCC(=O)Nc3ccccc3C(F)(F)F)n2)cc1OC -15.1%
Cc1cc(=O)n2c(C(=O)Nc3ccc(C)c(C)c3)c(C(=O)Nc3ccccc3)sc2n1 -15.9%
CN(C)c1ccc(CNc2nc(-c3ccco3)nn2S(=O)(=O)c2ccc(Cl)cc2)cc1 -14.6%
CCN(C(=O)CSc1nnc(-c2ccc(Cl)cc2)o1)c1ccccc1 31.4%
CCc1cccc(C)c1NC(=O)C1CCCN(S(=O)(=O)c2cccc3nsnc23)C1 (configuration not stated) 33.7%
CCc1ccccc1N(C)C(=O)C1CCCN(c2ncnc3onc(-c4ccc(F)cc4)c23)C1 (configuration not stated) -13.7%
Cc1ccc(OCCn2c(CNc3cccc(C)c3)nc3ccccc32)cc1 -20.6%
